According to PubChem BioAssay AID1347073 (National Center for Advancing Translational Sciences (NCATS), 2019):
Among all 45,000 compounds or so, about 200 (0.44%) were called active. About 7% were inconclusive and are not listed. The call rests on the fitted dose curve; in most records, active means well fitted activation curve with a large enough effect; inconclusive means small, poorly fitted or top-dose-only effect; inactive means no such curve, though single readings can be large or run the other way. This is one part of the list.

Experiment: qHTS of TDP-43 Inhibitors: NCGC Sytravon Library Screen; further: 0% is about no effect; nearly all actives have a fitted effect of over 55% in size
Details: yeast TDP-43 toxicity rescue, BacTiter-Glo growth, 24 h; series mostly up to 46.1 µM; growth rescue (activation): at the top concentration
From the text: The goal of this project is to identify new chemical probes capable of reversing the toxicity associated with TDP-43 which is associated with frontotemporal lobar degeneration and amyotrophic lateral sclerosis. These compounds will provide a complementary approach to deciphering the tangled mechanisms of toxicity and protection that we have uncovered through genome-wide genetic screens and are beginning to uncover in a large-scale proteomics analysis with mass spectroscopy. To this end, a miniaturized assay was developed to be screened against the Molecular Libraries Small Molecule Repository (MLSMR) to discover TDP-43 inhibitors. Please note that in the set-up this yeast-based assay compounds that inhibit as TDP-43, have a read-out as activators. NIH Chemical Genomics Center [NCGC] NIH Molecular Libraries Probe Centers Network [MLPCN] Assay Submitter (PI): Susan Lindquist, Whitehead Institute/MIT MLPCN Grant: R21 NS060957
Dispense 2.5 microL yeast galactose medium per 1536-well plate, pin compound, dispense 2.5 microL TDP-43 expressing yeast in galactose medium at OD600=0.02 (pregrown in raffinose medium to mid-log phase) per well, incubate for 24 hr at 30 deg C, and cell growth will be measured using 5 microL of Bactiter/Glo reagent to entire plate and read using Luminescence Protocol in ViewLux.

Row | Compound | growth rescue (activation)
1 | Cc1c(CC(=O)O)c(=O)oc2c(C)c3occ(-c4ccc(Br)cc4)c3cc12 | inactive: 6.15%
